From the supplement of paper PMC10126150
Sequences with one replicate were seen in a single cluster, so their values are uncertain.

Test system: ATP
Assay: switch fluorescence ratio, 500 uM ATP over buffer (Cy3 cluster intensity, sum of 5 cycles each) (fold (ratio)); higher = stronger signal-on switching upon ATP binding; sequences stand for … in TCGTCGGCAGCGTCAGATGTGTATAAGAGACAGTTTTTTTTTTTTTTTTTTTTTTTTT…TC
Conditions: aptamer strand: ATP DNA aptamer (quencher-CACCTGGGGGAGTATTGCGGAGGAAGG + anchor), 100 nM annealed; ATP concentration: 500 uM; one replicate
In short: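 Switching-strand clusters labelled with Cy3 on a modified Illumina MiSeq flow-cell were annealed to 100 nM quencher-labelled ATP aptamer, imaged in selection buffer, and re-imaged after 15 min with 500 uM ATP at 22 °C. This was done over five cycles with NaOH stripping and re-annealing in between. The fluorescence ratio is summed target-cycle over summed buffer-cycle Cy3 intensity per cluster, averaged per switch-domain sequence, excluding clusters outside 100-1000 RFU.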
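Further: ATP exposure 15 min at 22 °C before imaging.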

| Sequence | switch fluorescence ratio |
| --- | --- |
| GAGACAGGGT | 0.983 |
| TCGATCTTAT | 1.01 |
| TAAACAGGGG | 1.18 |
| TGAATCAA | 1.01 |
| AAGGCGTCGT | 0.953 |
| CCGTGGAGA | 1.04 |
| TTCCTGTGGC | 1.07 |
| ACACCACATA | 1.27 |
| TGCAATCGCT | 4.44 |
| ATTGCCCCGT | 1.04 |
| GAGACCCAGT | 1 |
| GTTAGCAACG | 1.03 |
| CAGAGTTCCA | 0.967 |
| CATGTGTACC | 1 |
| TTTATTATCC | 1.01 |
| AGAAGATAAT | 1.04 |
| TCTGTAGCAT | 3.73 |
| CTTCGGTGC | 1.12 |
| GCTCGGAGTC | 1.03 |
| AGGGATATGG | 1.29 |
| ACCTCATTGC | 1.05 |
| AGTCCATCGA | 1 |
| ACTTTTCAAA | 0.997 |

| Sequence | switch fluorescence ratio |
| --- | --- |
| GGTCGCGAGG | 1.01 |
| CGCCCAATTT | 0.984 |
| AGAAGTCTGT | 0.968 |
| CATTAAAGGC | 1.02 |
| TTGGCAGGTG | 3.04 |
| CAGAAATCTG | 1.17 |
| TACCAGGCTT | 1.01 |
| GATGTGGTAT | 1.01 |
| GCCTCTAAGC | 0.969 |
| TGATCTTTTA | 0.987 |
| AGTATTCAAC | 0.974 |
| ACCAGGTAGG | 1.13 |
| ATGTTAGGTC | 0.969 |
| ACCGCACTGA | 1.66 |
| GCCGTCGTAC | 0.975 |
| CAGCGCTTTA | 0.993 |
| CAATCGCGCG | 1.06 |
| GTCTCACCTT | 1.07 |
| TTTTTATCCG | 1.08 |
| CTCTTTGGAG | 0.989 |
| GGAGGGCATT | 1.05 |
| CAGGATCTAC | 1.09 |
| AGCAATGGCA | 1.13 |

| Sequence | switch fluorescence ratio |
| --- | --- |
| GACGGGTCAA | 0.984 |
| TGAGTATCGG | 1 |
| ATGAGAGGTA | 1.03 |
| CACGCCTGG | 1.07 |
| GAGGTCTTGT | 1.05 |
| TAGGGTAGCA | 1 |
| CCATCCCAGG | 4.26 |
| ACTCGTTGAG | 1 |
| ATTCATGGAC | 0.986 |
| TTCGCTGCGC | 1.09 |
| CTTTGTTTTA | 0.954 |
| TCTTCCTATG | 1.4 |
| TGTTGGGCAA | 1.05 |
| CGTAGTGACA | 0.982 |
| ACCCGGTGTT | 1.85 |
| CGTCCAGTAG | 1.13 |
| ACAGTGGGCA | 1.02 |
| GGAGCATTGG | 1.22 |
| TATTTTTCTG | 1 |
| TATGGGCGTG | 1 |
| AGCCGGCAAG | 1 |
| AAAACTTAAA | 1 |
| TACTAATGAC | 0.98 |

| Sequence | switch fluorescence ratio |
| --- | --- |
| GAAAAAGCGA | 3.36 |
| GACAAATTCG | 1.03 |
| AACGTAAG | 1.05 |
| TCGAGAGTCG | 0.95 |
| GGGTCGTGTC | 1.06 |
| TTACTTACCT | 1.02 |
| TGCCAGTCCG | 0.989 |
| TGGTACTACT | 1.04 |
| TCGAGTCTT | 0.96 |
| ACTACACTGT | 1.33 |
| TAGGGGGCCT | 1.06 |
| ACTAGACCAG | 1.05 |
| GTAGTTGCAT | 1 |
| TAATAGCTGT | 0.976 |
| AGAAGAAGAT | 1.03 |
| AGGTTATGCT | 0.971 |
| ACCGTGTTTT | 1 |
| ATCCCTATAG | 1.08 |
| ATGACTTCTA | 1 |
| GGGAGTTGAG | 1.01 |
| GACTGGTGAC | 1.07 |
| GACGAGGGTG | 1.07 |
| AGATCTAAGA | 0.962 |

| Sequence | switch fluorescence ratio |
| --- | --- |
| TCTCTATGGT | 0.959 |
| CTAACCACGA | 1.03 |
| CTGTATAATT | 1.01 |
| TCTTAAGCCG | 1.23 |
| GGTTTATCTA | 0.981 |
| TATTCTTGTA | 0.972 |
| CAGGAGATTC | 1.01 |
| GGGCGTACTT | 0.995 |
| TGGTGGAACC | 0.977 |
| ATACGGGCTG | 1.04 |
| AGTTGGAACG | 1.13 |
| GCATTATACC | 1.14 |
| TGAATCGC | 1.05 |
| GCACCTAGCC | 1.03 |
| GGAGGGCGGA | 1.05 |
| ACCCTGAGGT | 1.07 |
| ACATTTAAGA | 1.04 |
| TCGAGGTCGT | 0.989 |
| CGGGTTATAG | 0.995 |
| CTTGCTTTGG | 0.973 |
| CGCTACTCAC | 4.28 |
| GTAAGGACGA | 1.01 |
| CGGTTATAGC | 1.03 |

| Sequence | switch fluorescence ratio |
| --- | --- |
| AGCTTCTTGG | 1.01 |
| AGCCTGGGAC | 1.02 |
| GTTGGTGTGA | 0.992 |
| GGATGGAGAC | 1.02 |
| CAACAACGGC | 0.857 |
| CCGAGCGCAG | 1.77 |
| GCAGCCTAGA | 1 |
| AAAATGTCCA | 0.963 |
| GCGTTCGAAT | 0.937 |
| CATGAGTCAT | 0.948 |
| CTTTAGACTA | 0.944 |
| AGGGATTGTC | 1.09 |
| TAGTTATAGA | 0.959 |
| GTGGCACGT | 1 |
| TCAAAGCTCA | 1.01 |
| AGCACATATC | 2.85 |
| TTGTGACAGA | 1.11 |
| ATAGTGCTTT | 0.97 |
| TGGCACAGCT | 1.02 |
| GAGGAGAGC | 1.03 |
| GCCATAACGG | 1.03 |
| CGAGAGGTC | 1.07 |
| AATCTGCTTA | 0.994 |

| Sequence | switch fluorescence ratio |
| --- | --- |
| CAGTCAAATT | 1.01 |
| TGCACCAGGG | 1.7 |
| ACTGGTTAAA | 0.981 |
| TGGCATCGAG | 1 |
| TATGGTAAGA | 0.995 |
| CGTACTTTTG | 1.01 |
| TTACGTTAT | 1.21 |
| TAACCGGTCA | 1.04 |
| GTCCTTCCGG | 1.57 |
| CATCCTGGAC | 1.57 |
| ACAATCGTA | 1 |
| ATTAAGTATG | 0.967 |
| AGTATTAGGG | 1.02 |
| CCCGAATGCG | 1.05 |
| CGGTTAGGGC | 1.05 |
| GAGCCAGGCC | 0.999 |
| AAGCATAATT | 1.31 |
| TAGCAGTTTT | 1 |
| TGCATAGGCG | 1.06 |
